The supplement of paper PMC11417369
The list shows a part of the results.

Tested on: PF3D7_0420300 AP2 domain 1 (GST-tagged)
Test: gcPBM binding intensity (ln(normalized median fluorescence intensity)); higher = stronger DNA binding
Procedure, shortened: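 Binding intensity is the highest Masliner-normalised natural-log median intensity over replicate spots in either probe orientation. To obtain it, GST-tagged P. falciparum DNA-binding domains made in E. coli were incubated for 1 h on an Agilent 4 × 180k array of primer-extended double-stranded 36-bp intergenic genomic probes plus negative controls. Detection used Alexa488 anti-GST antibody with scanning at 488 nm.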

| Sequence | gcPBM binding intensity (ln) |
| --- | --- |
| GAGGGTATAATAAAAGCACACACAAAGATATAAATA [CACACA_site9087] | 9.84 |
| CATGAATATTTATACATGCACACTAAAATAAAGAAT [CACACA_site2412] | 9.48 |
| AAAAAATGCGACATGTGTACACATATATATATATAT [XGTACX_site1679] | 9.5 |
| ACATTTTGTAAAGAATGTACATATATATATATATTC [XGTACX_site8004] | 9.16 |
| TATATATATATATACACACACACACCCCAAAGCGTA [CACACA_site64] | 10.1 |
| ATTATGAATTTTAATTGTACATTATTATAGAATGTA [XGTACX_site619] | 8.86 |
| AGTTATTTTTATATTTCACACACATATACTTTTACA [CACACA_site9357] | 9.88 |
| AATAATTCTTAAAGGTGTACAATATGTATATAAGAA [XGTACX_site595] | 9.47 |
| AAAAATTCTTCCCAAGCATGCGCGCGTAAAATATTT [TGCATGCA_site77] | 9.2 |
| AAATTTTTTATTAGTAGTACGCATAAATATATGTAT [XGTACX_site1934] | 9.23 |
| AAAAAAATAAGACACACACACAAAAAAATAAAAATA [CACACA_site6357] | 10.1 |
| AAAAAAAAAAGAAAAGGTACACAGAATATATATATA [XGTACX_site6914] | 9.45 |
| AGATCATAATATTATACACACATTATGTATATGTAA [CACACA_site1490] | 9.45 |
| TGAATACATAAATATAGTACATATATATATATATTA [XGTACX_site8756] | 9.13 |
| TATAATATTATTTGAAGTACAAACATAAAAGAATTA [XGTACX_site3161] | 9.21 |
| GAACCATTTTTTGGTATACACACGTAATTATAGAAT [CACACA_site1851] | 9.4 |
| TACAAAAAATTATGGAGTACATATATAATATACAAT [XGTACX_site1004] | 9.3 |
| TTTTGTTGTATGATAATTCTTTTATCAATATGTCTT [TGCATGCA_negctrl_site567] | 9.29 |
| ACCAAATTATCAAATGGTACACATAAAATAATAAAA [XGTACX_site865] | 9.32 |
| GTTTCTATTCACATTTTACACACGTCCATCGCATTT [CACACA_site9142] | 9.99 |
| TAATTAACCTATGCATTCATATAGATACATAAATAT [CACACA_negctrl_site885] | 9.11 |
| ACAAAAAAAAATATGTTAACTATATATATATATATA [CACACA_negctrl_site346] | 9.07 |

| Sequence | gcPBM binding intensity (ln) |
| --- | --- |
| AATTGGGAACTGTAATGTACATATATTGAAAGTATA [XGTACX_site7081] | 9.24 |
| TATTTATTTGTACATATACACACTTAAATATGTTTA [CACACA_site3902] | 9.41 |
| TTATATTTCTTGAAGGGTACATACCATTATTTTTAA [XGTACX_site1159] | 9.03 |
| ATATATTTATATATTACACACAATATTGGAGACATA [CACACA_site931] | 9.62 |
| ATACATATATTAGGATGTACGTTTATTTTAGTTATT [XGTACX_site7169] | 9.47 |
| AGAAAACTCGCTTTTCTAAATCTCAAAAAAAAAAAA [XGTACX_negctrl_site94] | 8.73 |
| ATATACATATCATGTAGTACAATTTTTTTACTTTTT [XGTACX_site7988] | 9.21 |
| TAAAAAAATAAAATTACACACATATATAGATATATA [CACACA_site7273] | 9.39 |
| CACTTTTTTTAAATGTGTACGTATATGAAAATATCA [XGTACX_site4854] | 8.94 |
| TAAACAAAAAGGAAGAGTACTTGTAAAATTTGTAAA [XGTACX_site3003] | 9.26 |
| ATATATATAAAAGAAACAACATTTATTCAAAAGGTA [CACACA_negctrl_site749] | 9.46 |
| TTATTCTTTTAATATACACACTTTGTCTTTTCGCGC [CACACA_site5525] | 9.37 |
| ATATTATCATTTTTTTTAATGGAAAAAAAAAAAAAA [CACACA_negctrl_site1298] | 8.65 |
| ATATAATTCAAATACAGTACATATACAATATATACA [XGTACX_site1191] | 9.3 |
| TACTTTTATAAAAATTTTATCAAATTCTATATATGT [TGCATGCA_negctrl_site308] | 9.05 |
| TTTTAAATTTAGTGTAGTACACTTTTTTCAAATATA [XGTACX_site4659] | 9.05 |
| TATTTTTCTTTTTAAAAATATATCACATGAACATTA [XGTACX_negctrl_site183] | 8.88 |
| AATAACAAAATAGGCACACGCACATATATATATATA [CACACA_site1497] | 9.57 |
| ATTCAAAAGATGTATACACACATGTGGATAATATAA [CACACA_site2443] | 9.5 |
| GCACCCTGTATGAATGCACACATTCATAGAATTGCT [CACACA_site5475] | 9.38 |
| TACATATTTATATACACACACACACGGATATTTATA [CACACA_site7239] | 10.3 |
| GAATTCCTTTGTGTATGTACATAATGATATTATTTT [XGTACX_site7369] | 9.48 |

| Sequence | gcPBM binding intensity (ln) |
| --- | --- |
| TGATCAAATAAGTTTGCATGTCAACAATGCATATAT [TGCATGCA_site1025] | 9.11 |
| CCCCTTGTGGATTCTACACACAAAAAGTCGTCAAAA [CACACA_site821] | 9.67 |
| TAATTTTTTAAACACACACACATATATATATATATA [CACACA_site4230] | 9.66 |
| CATATCTCAATTTATGCATGCAGGATTTTTCTAATA [TGCATGCA_site516] | 9.1 |
| TTTTTTTTTTTTTGGTGTACATTTATAAAAAAAAAA [XGTACX_site8368] | 8.6 |
| ACACAAAAAAAAAAAAAAAAAAAAAAAAAAAAGGAA [CACACA_negctrl_site1162] | 9.32 |
| AATATGTACAGACATACACACATATATATATATATA [CACACA_site1222] | 9.46 |
| ACATATAAGATTATGTGTCCACAAAAAAATAAAACA [XGTACX_site2867] | 9.18 |
| TTTTTAATAACACTTTTGAAAAATAAAATAAAATAA [CACACA_negctrl_site821] | 8.8 |
| TTTTATGTTCTTAATGCACACTTATAAGTATCTTAT [CACACA_site4895] | 9.41 |
| TTTTTTTATTATTCTTATATAAAAATTTTTTTTAAT [CACACA_negctrl_site159] | 8.85 |
| ATAGTACAACAGGTTCTTGACAAACAATATGAATGT [GTGCAC_negctrl_site442] | 9.44 |
| TTTATATAATTTTTTTGTACATATATATGAATACAT [XGTACX_site2316] | 9.19 |
| TAATTTTTTTTTTTTTTTCATTCTTTTCCTTTGATT [CACACA_negctrl_site1365] | 9.16 |
| TTTTTTTTTTTTGGTAGTACATAATATTAATATAAT [XGTACX_site4422] | 9.2 |
| TATATTTTCCTGCAAACACACATATAAATGGGTAGA [CACACA_site4451] | 9.24 |
| ATATATATATATATGGTGCATGAAAATTTACTTTGA | 9.15 |
| ATATACTCATTTAATACACACAAAGAGAAAATTAAT [CACACA_site1923] | 9.64 |
| GATATTTGTTCATATACACACTTTTGATAAAATATG [CACACA_site4807] | 9.56 |
| TTTTTGTTATTATGTGTGCACATATATATATATATA | 9.66 |
| TATGTTATTATTTGTACACACACATATATATCCTTG [CACACA_site5910] | 10 |
| AACAAATATCCCAAAAGTACACATATAAAAAAAAAA [XGTACX_site4126] | 9.52 |

| Sequence | gcPBM binding intensity (ln) |
| --- | --- |
| ATTATCTTATGTTATTTATTTGTCCCACATTTGTTA [TGCATGCA_negctrl_site402] | 9.58 |
| CATACACCCAGACACACACACATATATATATATATA [CACACA_site634] | 9.94 |
| TACTAACATAAAGACACACACCACATAAAATAAATA [CACACA_site7663] | 9.77 |
| GGAAGAAAACTTAGGTGTACATATAAAACGATATAA [XGTACX_site3118] | 9.38 |
| TATGAACACAGACACACACACAAAAAAAAAAAAAAA [CACACA_site7037] | 9.27 |
| ATAGTATACAGACACACACACACACCGATATATATA [CACACA_site8511] | 10.3 |
| CTTATTTTGTTATAAGTGCATTTTTTAAAATTTCTT | 9.12 |
| TATACCTTTGCGTGTGCATGCGCTTATATATATTTT [TGCATGCA_site152] | 9.52 |
| TTTATGTGTATGTTTACACACATAAAAAAATATATG [CACACA_site3039] | 9.51 |
| ACAATTCCCGTATGATGTACTTTTTTCCACTTTTTC [XGTACX_site1811] | 9.64 |
| TATTTTTAATATTTTGCATGCAGTATTTTATAAAAT [TGCATGCA_site250] | 9.14 |
| CACACAAAGGAATATACACACATATTTATATTTATA [CACACA_site7841] | 9.66 |
| AATAAATAAATAAATTAATAAATTAATAAATTAATA [GTGCAC_negctrl_site37] | 8.83 |
| GTATATAATTTTTTATGTACTAAATTATATGTTTTT [XGTACX_site4907] | 9.26 |
| ATCTATTTGTAAAGGGTGCGCATATCAATAAAAAAT [GTGCAC_site9503] | 9.45 |
| CAAAATTTTTATAAGTCACACATTATCTAAGCTTAT [CACACA_site5747] | 9.1 |
| TACCTAATATGTTATACACACATTAGAAGTACATAT [CACACA_site5375] | 9.48 |
| ATAAAAAAAAAAAAAAAATATATATATATATATATA [XGTACX_negctrl_site424] | 8.78 |
| TATATACTTTTTAATCACACTTCTTTAAAAAAAGTA [CACACA_negctrl_site1380] | 8.85 |
| TGTAATAACGTTATAAAAAGTATAAAAAAAAAAAAA [CACACA_negctrl_site943] | 9.18 |
| TTATTTTTATTATTTTGTATATATATTTATAGAAAA [XGTACX_negctrl_site465] | 8.95 |
| TTTTAGGTCTGAATGTGTACTAAATAATATAAGTAT [XGTACX_site6554] | 9.14 |
